Experimental data published in article PMC4336329 (PLoS ONE, 2015).
About 2,200 (0.71%) of roughly 310,000 compounds showed an effect of 50% or more. Effects have a minus sign here. The list shows a part of the results.

Each compound was assayed against human ether-à-go-go-related gene (hERG) potassium channel (human, UniProt Q12809) (assay: primary screen, population patch clamp on CHO cells stably expressing hERG).
Chain of human ether-à-go-go-related gene (hERG) potassium channel (Q12809 whole entry, looked up): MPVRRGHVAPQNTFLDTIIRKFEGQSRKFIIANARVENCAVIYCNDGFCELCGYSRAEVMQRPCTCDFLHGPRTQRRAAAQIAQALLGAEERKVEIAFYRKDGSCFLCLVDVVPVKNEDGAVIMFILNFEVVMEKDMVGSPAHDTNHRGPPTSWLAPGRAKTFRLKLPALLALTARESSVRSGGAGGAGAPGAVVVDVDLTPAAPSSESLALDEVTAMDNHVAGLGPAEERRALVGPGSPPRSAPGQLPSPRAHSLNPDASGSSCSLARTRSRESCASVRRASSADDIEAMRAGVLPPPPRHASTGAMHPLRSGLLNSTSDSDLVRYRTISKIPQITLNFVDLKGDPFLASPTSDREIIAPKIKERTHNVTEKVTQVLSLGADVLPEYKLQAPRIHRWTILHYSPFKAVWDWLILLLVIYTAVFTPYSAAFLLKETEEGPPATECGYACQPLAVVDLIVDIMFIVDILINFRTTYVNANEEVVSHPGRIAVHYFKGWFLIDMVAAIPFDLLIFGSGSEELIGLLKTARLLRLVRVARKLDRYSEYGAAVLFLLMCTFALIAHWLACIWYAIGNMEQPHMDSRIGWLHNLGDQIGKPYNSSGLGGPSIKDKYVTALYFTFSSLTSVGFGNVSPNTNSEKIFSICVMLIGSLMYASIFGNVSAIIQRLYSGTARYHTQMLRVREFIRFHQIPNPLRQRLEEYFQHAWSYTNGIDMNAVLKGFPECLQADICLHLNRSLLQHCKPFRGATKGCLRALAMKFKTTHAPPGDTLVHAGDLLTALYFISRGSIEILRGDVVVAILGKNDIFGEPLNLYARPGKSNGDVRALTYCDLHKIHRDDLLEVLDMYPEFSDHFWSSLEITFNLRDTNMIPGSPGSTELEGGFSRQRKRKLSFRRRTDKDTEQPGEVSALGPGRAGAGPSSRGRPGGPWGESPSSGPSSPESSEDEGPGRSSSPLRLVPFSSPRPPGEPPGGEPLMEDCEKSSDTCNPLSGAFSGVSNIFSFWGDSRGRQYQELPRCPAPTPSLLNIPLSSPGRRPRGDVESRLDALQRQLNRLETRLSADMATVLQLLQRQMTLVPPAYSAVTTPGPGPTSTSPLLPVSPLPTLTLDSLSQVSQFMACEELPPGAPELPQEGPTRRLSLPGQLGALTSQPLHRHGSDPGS

First: CC(C)(C)NC(=O)NC(=O)COC(=O)c1cccc(F)c1
Second: O=C(COC(=O)CNC(=O)c1ccccc1F)Nc1nnc(-c2ccccc2)o1
The “hERG current change (%, negative = inhibition) at 1uM” value of the first is higher: -0.922% for the first, -10.1% for the second.

Going from `CC(C)[C@H](NC(=O)N1CCn2c1nc1ccccc12)C(=O)NCc1ccccc1Cl` to `O=C(CN1C(=O)c2ccccc2S1(=O)=O)c1ccccc1Cl`, the “hERG current change (%, negative = inhibition) at 1uM” value falls from 11.2% to 10.2%.

Compared with `Cc1cnc(C(=O)OCC(=O)Nc2cc(S(=O)(=O)N3CCCCC3)ccc2Cl)cn1`, `CCOc1ncccc1C(=O)Nc1cccc(S(=O)(=O)N2CCCCC2)c1` is lower in “hERG current change (%, negative = inhibition) at 1uM” value: 19.4% for the first, 5.44% for the second.

Compared with `CN1CCc2c1nc1ccccc1c2NC(=O)CN1CCCC1`, `CCOC(=O)N1CCN(c2c(NCCN3CCN(Cc4ccccc4)CC3)c(=O)c2=O)CC1` is lower in “hERG current change (%, negative = inhibition) at 1uM” value: 13% for the first, 0.789% for the second.

Going from `Cc1cc(C)c2c(N)c(-c3nnc(SCc4ccc(Cl)cc4)n3C)sc2n1` to `Cc1ccc(C)c(-n2c(SCC(=O)N3CCCC3)nnc2-c2ccccn2)c1`, the “hERG current change (%, negative = inhibition) at 1uM” value rises from 14.6% to 15.3%.

Going from `COc1ccc(OC)c(NC(=O)CCN2CCN(c3ccccc3F)CC2)c1` to `COc1ccc(OC)c(CN(CCCN2CCOCC2)C(=O)Nc2ccccc2)c1`, the “hERG current change (%, negative = inhibition) at 1uM” value falls from 9.62% to 0.0247%.

First: COc1ccc(CCNC(=O)CSc2nc(-c3ccco3)cc(C(F)(F)F)n2)cc1
Second: COc1ccccc1CCNC(=O)CCSc1nc(-c2ccco2)cc(C(F)(F)F)n1
The “hERG current change (%, negative = inhibition) at 1uM” value of the first is lower: -1.21% for the first, 13.4% for the second.

Compared with `Cl.c1ccc(-n2cnc3cc(NCc4ccccn4)ccc32)cc1`, `Cl.O=C(c1ccc(F)cc1F)N(Cc1ccccn1)Cc1ccco1` is higher in “hERG current change (%, negative = inhibition) at 1uM” value: 2.17% for the first, 8.89% for the second.

Going from `COc1ccc(Nc2nc(N/N=C/c3ccc(N(C)C)cc3)nc(C)c2[N+](=O)[O-])cc1` to `COc1ccc(-n2c(C(C)n3nc(C)c([N+](=O)[O-])c3C)n[nH]c2=S)cc1` (stereo not drawn), the “hERG current change (%, negative = inhibition) at 1uM” value falls from 21.5% to 11%.

Compared with `CC(=O)Nc1ccc(S(=O)(=O)Oc2ccccc2N2C(=O)C3C4CCC(C4)C3C2=O)cc1` (stereo not drawn), `CC(=O)Nc1ccc(S(=O)(=O)NCC2CCC(C(=O)N3CCN(c4ccccn4)CC3)CC2)cc1` (stereo not drawn) is higher in “hERG current change (%, negative = inhibition) at 1uM” value: 8.91% for the first, 23% for the second.

First: CC(=O)c1c(C)n(-c2ccc(Br)cc2)c2ccc(O)cc12
Second: CCOC(=O)c1c(C)n(-c2ccc(F)cc2)c2ccc(O)cc12
The “hERG current change (%, negative = inhibition) at 1uM” value of the first is higher: 14.8% for the first, 11.1% for the second.

Compared with `Cc1ccc(C(C(=O)NC2CCCC2)N(Cc2ccccc2)C(=O)c2csnn2)o1` (stereo not drawn), `COCCN(C(=O)CNC(=O)c1ccco1)C(C(=O)NC1CCCC1)c1ccc(F)cc1` (stereo not drawn) is lower in “hERG current change (%, negative = inhibition) at 1uM” value: 12.4% for the first, 9.03% for the second.

Going from `CCOC(=O)CCSc1nc(-c2ccccc2)cc(C(F)(F)F)n1` to `CN(c1ccc(O)cc1)c1nc(-c2ccccc2)cs1`, the “hERG current change (%, negative = inhibition) at 1uM” value rises from 9.18% to 17.6%.

First: CSc1c[n+]2c(n1C)CCC2.[I-]
Second: COc1ccc2[nH]c3c(c2c1)CCNC3
The “hERG current change (%, negative = inhibition) at 1uM” value of the first is lower: 5.05% for the first, 13% for the second.

Going from `Brc1ccc(-c2ccccc2)cc1` to `COc1ccc([C@@H](O)[C@@H](N)c2ccccc2)cc1.Cl`, the “hERG current change (%, negative = inhibition) at 1uM” value falls from 12.4% to 10.9%.

First: CC(C)Oc1ccc(/C(O)=C2/C(=O)C(=O)N(CCN3CCOCC3)C2c2ccccc2)cc1 (stereo not drawn)
Second: COC(=O)c1ccc(Cn2nnc3c(=O)[nH]c(C4CCCN(S(=O)(=O)c5ccccc5)C4)nc32)cc1 (stereo not drawn)
The “hERG current change (%, negative = inhibition) at 1uM” value of the first is higher: 12.8% for the first, 10.9% for the second.

Going from `Cc1ccccc1CC(=O)Nc1cccnc1` to `O=C(Cc1ccccc1)Nc1nc(-c2ccc(F)c(F)c2)cs1`, the “hERG current change (%, negative = inhibition) at 1uM” value rises from 14.5% to 17.8%.

Compared with `CN1CCN(c2ccc(Cl)cc2NC(=O)CC2OC(=O)c3ccccc32)CC1` (stereo not drawn), `O=C1c2ccccc2C(=O)C12OC2c1ccc(Cl)cc1` (stereo not drawn) is higher in “hERG current change (%, negative = inhibition) at 1uM” value: -61.2% for the first, 13.4% for the second.

Going from `CC(=O)Nc1ccc(N(C)S(C)(=O)=O)cc1` to `CC(C)(C)SCCNC(=O)CN(c1ccc(F)cc1)S(=O)(=O)c1ccccc1`, the “hERG current change (%, negative = inhibition) at 1uM” value rises from -0.0576% to 14.7%.

First: COc1ccc(-c2nnc3ccc(SCC(=O)Nc4cc(C)on4)nn23)cc1OC
Second: COc1ccc(NC(=O)CSCc2ccc([N+](=O)[O-])cc2)cc1OC
The “hERG current change (%, negative = inhibition) at 1uM” value of the first is higher: 4.84% for the first, 4.12% for the second.

First: O=C1CN2C(=Nc3ccc(Br)cc3C2c2ccccc2)CCN1 (stereo not drawn)
Second: Cc1oc(-c2cccc(F)c2)nc1CN(Cc1ccccc1)C[C@@H]1CCC(=O)N1
The “hERG current change (%, negative = inhibition) at 1uM” value of the first is lower: 6.42% for the first, 6.53% for the second.

Compared with `O=C(c1ccc(CS(=O)(=O)c2ccc(Br)cc2)o1)N1CCN(C2CCCCC2)CC1`, `CC1CCN(C(=O)Cn2c(=O)oc3cc(S(=O)(=O)N4CCCCC4)ccc32)CC1` is higher in “hERG current change (%, negative = inhibition) at 1uM” value: -7.37% for the first, 14.5% for the second.

First: COc1ccc(Cl)cc1NC(=O)CCN1C(=O)C2C3C=CC(C4CC34)C2C1=O (stereo not drawn)
Second: COc1ccc(NC(=O)Cn2c(C)csc2=O)c(OC)c1
The “hERG current change (%, negative = inhibition) at 1uM” value of the first is lower: 4.88% for the first, 6.05% for the second.

First: CC(C)CN(C(=O)CSc1n[nH]c(-c2cccs2)n1)C1CCS(=O)(=O)C1 (stereo not drawn)
Second: COCc1nnc(NC(=O)C2CC(=O)N(CCc3ccc(F)cc3)C2)s1 (stereo not drawn)
The “hERG current change (%, negative = inhibition) at 1uM” value of the first is lower: 2.69% for the first, 17.4% for the second.

Compared with `Cc1cc(Nc2ccc3c(c2)OCCO3)c2ccccc2n1.Cl`, `COc1cc(Nc2c3c(nc4ccccc24)CCC3)cc(OC)c1OC` is lower in “hERG current change (%, negative = inhibition) at 1uM” value: -3.48% for the first, -19.4% for the second.

First: C/C(=N\NC(=O)COc1ccccc1)c1ccc(O)cc1
Second: CC(=O)OC(COc1cccc(C)c1)Cn1cnc2ccccc21.Cl (stereo not drawn)
The “hERG current change (%, negative = inhibition) at 1uM” value of the first is higher: -3.98% for the first, -5.27% for the second.

Compared with `CC(Cl)C(=O)N1c2ccccc2CCc2ccccc21` (stereo not drawn), `COc1ccccc1CC1CC(=O)N(c2ccccc2)C1=O` (stereo not drawn) is higher in “hERG current change (%, negative = inhibition) at 1uM” value: 8.04% for the first, 10.8% for the second.

Going from `CN(Cc1ccncc1)C1CC(=O)N(c2ccc(Cl)cc2)C1=O` (stereo not drawn) to `CCCCOc1ccc(C(C)NC(=O)CCS(=O)(=O)Cc2ccc(Cl)cc2)cc1` (stereo not drawn), the “hERG current change (%, negative = inhibition) at 1uM” value rises from -3.62% to 16.7%.

Compared with `Cc1cc(SCC(=O)N/N=C/c2ccc(O)c(O)c2O)c(C)cc1Br`, `Cn1c2ccc(CC(=O)O)cc2c2cc(CC(=O)O)ccc21` is higher in “hERG current change (%, negative = inhibition) at 1uM” value: 7.17% for the first, 11.4% for the second.

Compared with `O=C(CN1C(=O)/C(=C/c2ccccc2)SC1=S)Nc1ncc(Cc2ccccc2)s1`, `CN1/C(=C\C(=O)CSc2nnc(NCc3ccccc3)s2)C(C)(C)c2ccccc21` is lower in “hERG current change (%, negative = inhibition) at 1uM” value: 11.5% for the first, -4.97% for the second.

Going from `CC(C)(Cc1cc(CC(C)(C)C(=O)O)cc(C(C)(C)C)c1)C(=O)O` to `COCC(=O)OCC(=O)Nc1cc(C)c(C)cc1[N+](=O)[O-]`, the “hERG current change (%, negative = inhibition) at 1uM” value falls from 15.1% to 5.93%.

Compared with `COc1ccccc1NC(=O)c1ccccc1N(Cc1ccccc1)S(C)(=O)=O`, `COc1ccccc1C1=NN(C(=O)c2ccccc2)C(c2ccc(Br)cc2)C1` (stereo not drawn) is higher in “hERG current change (%, negative = inhibition) at 1uM” value: 16.5% for the first, 18.5% for the second.

Going from `Cc1cccc(N2C(=O)/C(=C/c3ccccn3)SC2=S)c1` to `Cc1ccc(S(=O)(=O)N2CCCC2CNC(=O)C(=O)NCc2ccccn2)cc1` (stereo not drawn), the “hERG current change (%, negative = inhibition) at 1uM” value falls from 9.11% to 4.34%.

Going from `Nc1nnnn1/N=C/c1ccccc1O` to `CN(C)c1nc2ccccc2c(N)c1-c1ccccc1.O=C(O)C(=O)O`, the “hERG current change (%, negative = inhibition) at 1uM” value falls from 15.1% to -39.7%.

Compared with `CC(C)c1onc(C(=O)N2CCN(c3ccc(F)cc3)CC2)c1[N+](=O)[O-]`, `CCOC(=O)c1sc2nc(CC(=O)OC)nc(N3CCN(c4ccc(OC)cc4)CC3)c2c1C` is higher in “hERG current change (%, negative = inhibition) at 1uM” value: 11.7% for the first, 12.6% for the second.

Going from `Cc1ccc(S(=O)(=O)N(CC(=O)NCCC2=CCCCC2)Cc2ccccc2)cc1` to `COc1ccc(OC(C)C(=O)NCCC2=CCCCC2)cc1` (stereo not drawn), the “hERG current change (%, negative = inhibition) at 1uM” value rises from 2.21% to 11.6%.

Compared with `COc1cccc(-c2nc(-c3ccc(NC(=O)c4ccncc4)cc3)no2)c1`, `COc1cccc(C(=O)Nc2c3c(nc4c2CCC4)CCCC3)c1` is higher in “hERG current change (%, negative = inhibition) at 1uM” value: -1.38% for the first, 2.65% for the second.

Going from `CCCC(=O)Nc1nc2ccc(S(N)(=O)=O)cc2s1` to `CCN(CC)S(=O)(=O)c1cc([N+](=O)[O-])ccc1N=Nc1c(O)[nH]c2ccccc12`, the “hERG current change (%, negative = inhibition) at 1uM” value rises from 3.63% to 9.04%.

First: COc1cc(-c2cc(=O)c3c(O)c(OC)c(OC)cc3o2)cc(OC)c1O
Second: CC(=O)Oc1ccc2occ(/C=N/c3cc(=O)[nH]c(=S)[nH]3)c(=O)c2c1
The “hERG current change (%, negative = inhibition) at 1uM” value of the first is lower: 9.36% for the first, 17.5% for the second.

Going from `Cc1ccc2c(c1)C1OCCC1C1N2C(=O)C2C(C(=O)O)C3C=CC21O3` (stereo not drawn) to `CC(=O)Nc1ccc(N2CCCC(C)C2)c([N+](=O)[O-])c1` (stereo not drawn), the “hERG current change (%, negative = inhibition) at 1uM” value falls from 14% to 5.5%.

First: CCN(CC)CCNC(=O)c1ccc2c(=O)n(CCc3ccccc3)c(=O)[nH]c2c1
Second: CCCCN(C(=O)c1ccc2c(c1)NC(=O)CS2)c1ccccc1
The “hERG current change (%, negative = inhibition) at 1uM” value of the first is higher: 7.57% for the first, -2.71% for the second.

First: Cc1ccc(Nc2nc(/N=C/NO)n[nH]2)cc1C
Second: Cc1cccn2c(=O)c3cc(C(=O)NCC4CCCO4)c(=N)n(CC4CCCO4)c3nc12 (stereo not drawn)
The “hERG current change (%, negative = inhibition) at 1uM” value of the first is higher: 11.7% for the first, -84.8% for the second.

Going from `CC1CCN(C(=O)C(C)OC(=O)CSc2ccc([N+](=O)[O-])cc2)CC1` (stereo not drawn) to `CN(Cc1nccn1C)C(=O)CC1C(=O)NCCN1CC(c1ccccc1)c1ccccc1` (stereo not drawn), the “hERG current change (%, negative = inhibition) at 1uM” value rises from 0.731% to 3.86%.

With `COC(C/C=C/[C@H](O)[C@H](C)OCc1ccccc1)OC` the “hERG current change (%, negative = inhibition) at 1uM” value was 12%.
